{"source": "PubChem BioAssay AID1671188", "about": "(National Center for Advancing Translational Sciences (NCATS), 2021)", "note": "In all, about 100,000 compounds went through this assay and about 250 (0.25%) were called active. This list was built around the results that the source calls inconclusive (neither active nor inactive); the mix of calls is not that of the screen. Calls follow the shape of the dose curve; as a rule, active = well fitted inhibition curve with a large enough effect; inconclusive = small, poorly fitted or top-dose-only effect; inactive = flat fitted curve, though single readings scatter. Potencies of inconclusive entries are left out as doubtful fits. % is scaled to controls: 0 for no effect and ±100 for the full control effect; potency is read from the fitted curve at half-maximal effect; tags tell the direction and shape of the fitted curve."}
{"target": "Alanine aminotransferase 2 (Homo sapiens) (UniProt Q8TD30)", "sequence (Q8TD30 whole entry, looked up)": "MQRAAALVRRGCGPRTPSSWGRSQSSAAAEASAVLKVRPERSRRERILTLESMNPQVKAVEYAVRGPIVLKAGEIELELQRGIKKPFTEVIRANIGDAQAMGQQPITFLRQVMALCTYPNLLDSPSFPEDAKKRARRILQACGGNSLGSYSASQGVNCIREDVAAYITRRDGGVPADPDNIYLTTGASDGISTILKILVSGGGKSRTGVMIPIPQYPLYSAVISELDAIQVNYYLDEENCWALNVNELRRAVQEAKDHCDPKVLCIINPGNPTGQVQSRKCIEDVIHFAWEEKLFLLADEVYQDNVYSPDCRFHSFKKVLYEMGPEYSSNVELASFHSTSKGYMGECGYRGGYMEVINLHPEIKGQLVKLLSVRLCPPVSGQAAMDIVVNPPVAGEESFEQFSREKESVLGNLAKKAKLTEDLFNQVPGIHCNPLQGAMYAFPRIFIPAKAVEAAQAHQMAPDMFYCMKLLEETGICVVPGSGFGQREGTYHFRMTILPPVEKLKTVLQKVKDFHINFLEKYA", "assay": "Primary qHTS assay for inhibitors of Glutamate pyruvate transaminase 2 (GPT2); also: nearly all actives have a fitted effect of over 60% in size", "settings": "Recombinant GPT2, coupled pyruvate oxidase/HRP Amplex Red fluorescence; activity change, negative = inhibition: at 57.7 µM (top of the series) unless noted; series mostly up to 57.7 µM", "how_it_was_run": "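GPT2 10ng/uL, a-KG 250uM, L-Ala 2mM, HEPES pH7.5 + 0.0001% Tween; 30 min RT. Then Amplex mix (PO/HRP/ThPP), 30 min RT dark, fluorescence. AOA 50uM used as positive control.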"}
{"smiles": "O=C(NC1CCN(c2cc(-c3cccs3)[nH]n2)C1)c1cccnc1", "note": "(stereo not given)", "Potency": "inconclusive [inhibitor, partial curve, poor fit]"}
{"smiles": "CN1C[C@@H](NS(=O)(=O)c2ccc(C#N)cc2)C[C@H]1c1nc(-c2ccc(Cl)cc2)no1", "outcome": "inactive"}
{"smiles": "CC[C@@]1(O)C(=O)OCc2c1cc1n(c2=O)Cc2cc3cc(O)ccc3nc2-1", "Potency": "inconclusive [inhibitor, single point]"}
{"smiles": "Fc1cccc(OC2CCNC2)c1", "note": "(stereo not given)", "outcome": "inactive"}
{"smiles": "COc1ccc(C(=O)N2CC(CNC(=O)N3CCCC3)C3(CCOCC3)C2)cc1", "note": "(stereo not given)", "activity change, negative = inhibition": "inactive: 0.383%"}
{"smiles": "Cc1nc(Nc2n[nH]c3c2CN(C(=O)N[C@H](CN(C)C)c2ccccc2)C3(C)C)c2sccc2n1", "Potency": "inconclusive [inhibitor, partial curve, poor fit]"}
{"smiles": "COc1ccc(C(=O)N2CCc3ccc(C(=O)NCc4ccccc4)cc32)cc1", "Potency": "inconclusive [inhibitor, single point]"}
{"smiles": "O=C(NCCCc1ccccc1)c1cccc(-c2cc(O)c3ncccc3c2)c1", "Potency": "inconclusive [inhibitor, single point]"}
{"smiles": "N#Cc1cccc(NC(=S)N[C@H]2CO[C@H]3[C@@H]2OC[C@@H]3n2nnnc2Oc2cccc(N3CCOCC3)c2)c1", "Potency": "inconclusive [inhibitor, single point]"}
{"smiles": "O=c1cc(-c2ccccn2)oc2c(-c3ccccc3F)nccc12", "Potency": "inconclusive [inhibitor, partial curve]"}
{"smiles": "COc1ccc(C(=O)N[C@@H]2CCC[C@@H]2C(=O)NCCCN2CCCc3ccccc32)cc1", "Potency": "inconclusive [inhibitor, single point]"}
{"smiles": "COC(=O)[C@@H]1Cc2ncn(Cc3ccccc3)c2CN1S(=O)(=O)c1cccc(C(F)(F)F)c1", "Potency": "inconclusive [inhibitor, full curve, poor fit]"}
{"smiles": "CCOc1ccccc1CN1CCC2(CCN(Cc3ccc(F)cc3)CC2)Oc2ccccc21", "outcome": "inactive"}
{"smiles": "COc1cc(OC)cc(C(=O)Nc2ccc3c(c2)CN(Cc2ccc(F)cc2)C(=O)C(C)O3)c1", "note": "(stereo not given)", "Potency": "inconclusive [inhibitor, single point]"}
{"smiles": "CCc1nc2c(=O)n(CC(=O)NCc3cccc(Cl)c3)nc(C)c2s1", "Potency": "inconclusive [inhibitor, single point]"}
{"smiles": "O=C(NC1CCCC1)c1cc2cn(C3CC3)cc2s1", "Potency": "inconclusive [inhibitor, full curve, poor fit]"}
{"smiles": "CCc1noc(CN2CCOc3c(O)cc(-c4ccccc4C)cc3C2)n1", "outcome": "inactive"}
{"smiles": "COc1ccc(-c2ccc3ncc(Nc4cccc(Cl)c4)n3n2)cn1", "Potency": "inconclusive [inhibitor, partial curve, poor fit]"}
{"smiles": "CC(C)c1ccc(CC(=O)N2CCCc3ncc(C(=O)Nc4ccccc4)cc32)cc1", "activity change, negative = inhibition": "inactive: 0.105% [at 88.5 µM]"}
{"smiles": "CCn1cc(CN2CCN(C(=O)c3sccc3C)CC2)ccc1=O", "Potency": "inconclusive [inhibitor, single point]"}
{"smiles": "N#Cc1cccc(CN2CC[C@H]3C(=O)NCCCCCCN(Cc4ccncc4)[C@@H]3C2)c1", "outcome": "inactive"}
{"smiles": "N#CC1CCN(C(=O)c2cc(-c3ccc(Cl)cc3)c3nncn3n2)CC1", "Potency": "inconclusive [inhibitor, single point]"}
{"smiles": "COc1ccc2[nH]c3c(c2c1)CCNC31CCN(C(=O)C(C)(C)C)CC1", "Potency": "inconclusive [inhibitor, single point]"}
{"smiles": "O=C(CCC1CCCC1)NCCC1CCN(C(=O)Nc2ccc(F)cc2F)CC1", "Potency": "inconclusive [inhibitor, single point]"}
{"smiles": "Cn1ccc(NC(=O)[C@@H]2C[C@@H](c3ccc(F)cc3)N([S+](=O)([O-])c3ccccc3)C2)n1", "Potency": "inconclusive [inhibitor, single point]"}
{"smiles": "CCn1cc(-c2ccc(Cl)cc2)cc1C(=O)N1CCN(C(C)C)CC1", "activity change, negative = inhibition": "inactive: -6.88%"}
{"smiles": "CCOc1ccc(C(Nc2ccccn2)c2ccc3ccc(C)nc3c2O)cc1C", "note": "(stereo not given)", "Potency": "inconclusive [inhibitor, single point]"}
{"smiles": "CC(C)(C)NC(=O)C1CCCN(C2CCN(C3Cc4ccccc4C3)CC2)C1", "note": "(stereo not given)", "Potency": "inconclusive [inhibitor, single point]"}
{"smiles": "CCn1cc(CN2CCCCCCNC(=O)[C@@H]3CCC[C@@H]32)c(C)n1", "Potency": "inconclusive [inhibitor, single point]"}
{"smiles": "CCn1c(CC2CCNCC2)nn(Cc2csc(-c3ccccc3)n2)c1=O", "Potency": "inconclusive [inhibitor, full curve, poor fit]"}
{"smiles": "O=C(c1cccc(F)c1)N1CCCN(c2cc(-c3ccc(F)cc3)[nH]n2)CC1", "activity change, negative = inhibition": "inactive: 1.67%"}
{"smiles": "O=C(c1ccc(F)cc1)N1CCC(C(=O)N2CCCC2c2nc3ccncc3[nH]2)CC1", "note": "(stereo not given)", "outcome": "inactive"}
{"smiles": "O=C(c1ccc(F)cc1)N1CCC(c2nn(-c3ccc(F)cc3)c(=O)[nH]2)CC1", "Potency": "inconclusive [inhibitor, full curve, poor fit]"}
{"smiles": "COc1ccccc1-c1ncc2c(n1)OCCN(Cc1ccc(F)cc1F)C2=O", "activity change, negative = inhibition": "inactive: -17.2% [at 88.5 µM]"}
{"smiles": "O=C(NCCNC(=O)c1cccc(-c2ccsc2)c1)c1ccc(C(F)(F)F)cc1", "outcome": "inactive"}
{"smiles": "Cc1cccc(CN2CCCC3(CCN(c4nc5ccccc5o4)C3)C2=O)c1", "note": "(stereo not given)", "Potency": "inconclusive [inhibitor, partial curve, poor fit]"}
{"smiles": "COc1ccc(C(=O)N2CCCN(C)c3ccccc32)c(OC)c1", "Potency": "inconclusive [inhibitor, partial curve, poor fit]"}
{"smiles": "Cc1ccc(NC(=O)N2CCC(CCNC(=O)c3ccccn3)CC2)cc1F", "outcome": "inactive"}
{"smiles": "CC(=O)N1CCC(c2nnc3n2CCNC3)CC1", "Potency": "inconclusive [inhibitor, partial curve, poor fit]"}
{"smiles": "CNC(=O)[C@@H]1C[C@H](Oc2cccnc2)CN1C(=O)Cc1ccccc1", "outcome": "inactive"}
{"smiles": "COc1ccc(Nc2cnc3ccc(N4CCOCC4)nn23)cc1", "activity change, negative = inhibition": "inactive: -9.82% [at 88.5 µM]"}
{"smiles": "Cc1ccc(CN2C(=O)[C@@H]3C[C@@H](O)CN3C3(CN(Cc4ccccn4)C3)C2=O)o1", "Potency": "inconclusive [inhibitor, single point]"}
{"smiles": "CC[C@]1(O)C[C@@H]2CN(CCc3c([nH]c4ccccc34)[C@@](C(=O)OC)(c3cc4c(cc3OC)N(C=O)[C@@H]3C45CCN4CC=C[C@](CC)([C@H]45)[C@@H](OC(C)=O)[C@]3(O)C(=O)OC)C2)C1", "note": "(stereo not given in full)", "Potency": "inconclusive [inhibitor, single point]"}
{"smiles": "CC(C)(C)NC(=O)Cn1ccn2nc(-c3ccccc3)c(CO)c2c1=O", "outcome": "inactive"}
{"smiles": "CN1[C@@H](CCC(=O)N2CCN(c3ccccc3)CC2)CNC(=O)[C@@H]2[C@H]1CCN2Cc1ccc(CO)o1", "Potency": "inconclusive [inhibitor, single point]"}
{"smiles": "COc1cccc(CN2CCC(N3CC(OCC4CC4)C34CCCCC4)CC2)n1", "note": "(stereo not given)", "Potency": "inconclusive [inhibitor, single point]"}
{"smiles": "Cc1nc2cnc3ccc(C#Cc4cccnc4)cc3c2n1-c1ccc(C(C)(C)C#N)cc1", "Potency": "inconclusive [inhibitor, full curve, poor fit]"}
{"smiles": "CSCCNC(=O)c1cc(-c2ccc([S+](C)(=O)[O-])cc2)c2cccn2n1", "outcome": "inactive"}
{"smiles": "Cc1ccc(C(=O)NC2CCCN(c3cc(-c4ccc(Cl)cc4)[nH]n3)C2)cn1", "note": "(stereo not given)", "Potency": "inconclusive [inhibitor, partial curve, poor fit]"}
{"smiles": "CN1CCCCCC(O)c2cc(C(=O)Nc3cccc(OC(F)(F)F)c3)ccc21", "note": "(stereo not given)", "Potency": "inconclusive [inhibitor, single point]"}
{"smiles": "CCCN1CCC(N2CCC3(CC2)CC2C(=O)N(CC)C(=O)N2C3)CC1", "note": "(stereo not given)", "activity change, negative = inhibition": "inactive: 4.42%"}
{"smiles": "O=C(Nc1ccccc1)c1nc2c(o1)CCN(Cc1ccccn1)CC2", "activity change, negative = inhibition": "inactive: -6.91% [at 88.5 µM]"}
{"smiles": "Cc1ccc(CN2CC[C@H](c3nc4ccc(C(F)(F)F)cc4[nH]3)C2)cc1", "activity change, negative = inhibition": "inactive: -29.9% [at 88.5 µM]"}
{"smiles": "COc1ccc(NC(=O)N2CC[C@@H](CC(=O)O)[C@@H](CC3=NCCc4cc(OC)c(OC)cc43)C2)cc1", "Potency": "inconclusive [inhibitor, partial curve, poor fit]"}
{"smiles": "O=C1NCc2ccccc2CC12CCCN2Cc1ccccc1Br", "note": "(stereo not given)", "Potency": "inconclusive [inhibitor, single point]"}
{"smiles": "NC(CO)(CO)CCc1ccc(Sc2cccc(OCc3ccccc3)c2)cc1Cl", "Potency": "inconclusive [inhibitor, single point]"}
{"smiles": "CCc1ccc(CN(C)C(=O)c2cn(CC3COc4ccccc4O3)nn2)cc1", "note": "(stereo not given)", "Potency": "inconclusive [inhibitor, partial curve, poor fit]"}
{"smiles": "COc1cc(CN2CCCCC23Cc2ccccc2CNC3=O)ccc1F", "note": "(stereo not given)", "activity change, negative = inhibition": "inactive: -6.82%"}
{"smiles": "CNC(=O)c1onc(-c2ccc(OC)cc2)c1[C@H](C)O", "outcome": "inactive [at 88.5 µM]"}
{"smiles": "Cc1[nH]nc2c1C(c1cccc(Cl)c1)C(C#N)=C(N)O2", "note": "(stereo not given)", "Potency": "inconclusive [inhibitor, single point]"}
{"smiles": "CC1=NS(=O)(=O)N(C)C=C1C(=O)OCc1noc(-c2ccco2)n1", "Potency": "inconclusive [inhibitor, single point]"}
{"smiles": "O=C(O)[C@H]1O[C@H](Oc2cc3oc(-c4ccccc4)cc(=O)c3c(O)c2O)[C@H](O)[C@@H](O)[C@H]1O", "Potency": "active: 3.43 µM"}
{"smiles": "CN1C(=O)CC[C@]2(C(=O)NCc3cccc(C(F)(F)F)c3)CCCC[C@@H]12", "activity change, negative = inhibition": "inactive: 3.59%"}
{"smiles": "CC[C@@H](Nc1c(Nc2cccc(C(=O)N(C)C)c2O)c(=O)c1=O)c1cc(C(C)C)co1", "Potency": "inconclusive [inhibitor, partial curve]"}
{"smiles": "CC1CCN(CC[C@@H]2CC[C@H](O)[C@@H](C(=O)Nc3ccccc3)O2)CC1", "Potency": "inconclusive [inhibitor, full curve, poor fit]"}
